PMC4336329 (PLoS ONE, 2015)
Screen size: about 310,000 compounds; about 14,000 (4.5%) showed an effect of 50% or more. The effect is printed as a negative number. The list shows a part of the results.
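Further: peak tail current of the secondary pulse compared with the same well before compound.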

What follows are compounds tested against human ether-à-go-go-related gene (hERG) potassium channel (human, UniProt Q12809) (assay: primary screen, population patch clamp on CHO cells stably expressing hERG).
human ether-à-go-go-related gene (hERG) potassium channel, sequence (Q12809 whole entry, looked up): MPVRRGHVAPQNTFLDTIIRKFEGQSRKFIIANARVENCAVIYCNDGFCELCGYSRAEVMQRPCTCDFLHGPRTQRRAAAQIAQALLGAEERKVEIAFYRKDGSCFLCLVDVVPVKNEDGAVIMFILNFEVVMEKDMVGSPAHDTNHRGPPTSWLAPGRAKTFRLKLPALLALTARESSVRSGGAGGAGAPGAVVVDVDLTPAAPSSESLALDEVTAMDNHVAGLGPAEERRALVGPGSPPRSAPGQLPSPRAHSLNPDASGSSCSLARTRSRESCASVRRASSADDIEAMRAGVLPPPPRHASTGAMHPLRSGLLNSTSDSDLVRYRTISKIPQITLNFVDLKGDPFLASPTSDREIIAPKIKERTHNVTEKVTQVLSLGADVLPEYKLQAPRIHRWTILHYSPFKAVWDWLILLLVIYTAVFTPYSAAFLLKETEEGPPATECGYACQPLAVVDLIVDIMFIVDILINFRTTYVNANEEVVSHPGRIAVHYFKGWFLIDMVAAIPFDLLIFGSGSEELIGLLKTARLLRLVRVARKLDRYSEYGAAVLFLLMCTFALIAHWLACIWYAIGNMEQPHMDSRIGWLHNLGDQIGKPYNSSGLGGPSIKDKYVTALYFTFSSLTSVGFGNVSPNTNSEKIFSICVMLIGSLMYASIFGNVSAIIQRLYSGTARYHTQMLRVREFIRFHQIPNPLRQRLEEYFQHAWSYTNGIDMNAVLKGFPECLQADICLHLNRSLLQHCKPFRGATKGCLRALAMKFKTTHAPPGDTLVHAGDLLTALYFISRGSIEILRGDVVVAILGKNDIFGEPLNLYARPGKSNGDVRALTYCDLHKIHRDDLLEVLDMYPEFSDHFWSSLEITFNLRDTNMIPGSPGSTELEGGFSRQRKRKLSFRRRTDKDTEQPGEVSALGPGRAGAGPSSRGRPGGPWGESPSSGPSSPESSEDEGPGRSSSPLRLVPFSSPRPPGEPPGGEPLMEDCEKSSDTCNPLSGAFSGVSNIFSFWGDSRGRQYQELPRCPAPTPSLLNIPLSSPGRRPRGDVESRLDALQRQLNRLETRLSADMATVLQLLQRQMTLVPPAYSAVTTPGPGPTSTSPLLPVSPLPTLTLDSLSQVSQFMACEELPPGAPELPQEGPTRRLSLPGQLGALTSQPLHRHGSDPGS
With `N#Cc1ccc(Oc2ccc(C(N)=O)cc2)cc1C#N` the “hERG current change (%, negative = inhibition) at 10uM” value was -8.43%.
For `O=C(c1cc2ccccc2oc1=O)N(Cc1ccco1)Cc1cccs1`, the “hERG current change (%, negative = inhibition) at 10uM” value was -58.3%.
In the case of `CC(=O)Nc1cccc(Oc2ncnc3scc(-c4ccc(C(C)C)cc4)c23)c1`, the “hERG current change (%, negative = inhibition) at 10uM” value is reported as 18.4%.
`CS(=O)(=O)O.Cc1cc2c(cc1[N+](=O)[O-])NC(CNC(C)C)CC2` (stereo not shown) was tested, and the “hERG current change (%, negative = inhibition) at 10uM” value was -25%.
In the case of `COC(=O)[C@H](CCSC)NC(=O)Nc1ccc(OC)cc1`, the “hERG current change (%, negative = inhibition) at 10uM” value is reported as 10.5%.
For `Cc1ccccc1NC(=O)CN1C(=O)c2ccccc2C1=O`, the “hERG current change (%, negative = inhibition) at 10uM” value was 8.65%.
`COc1ccc(CN2CCn3ncc(C(=O)Nc4ccccc4)c3C2=O)cc1` was tested, and the “hERG current change (%, negative = inhibition) at 10uM” value was -1.98%.
In the case of `Cc1cc(C(=O)COc2ccccc2Cl)c(C)n1C1CC1`, the “hERG current change (%, negative = inhibition) at 10uM” value is reported as -5.85%.
In the case of `C=CCNC(=O)c1ccccc1NC(=O)Nc1ccccc1`, the “hERG current change (%, negative = inhibition) at 10uM” value is reported as 5.28%.
In the case of `Cc1ccc(OCCCC(=O)Nc2ccc(S(=O)(=O)Nc3cc(C)nc(C)n3)cc2)cc1`, the “hERG current change (%, negative = inhibition) at 10uM” value is reported as 6.38%.
`COc1cccc(C(=O)n2cnnc2N)c1OC` was tested, and the “hERG current change (%, negative = inhibition) at 10uM” value was 6.77%.
`Cc1cc(/C=N/NC(=O)c2nn(C)cc2Cl)c(C)n1-c1cccc(Br)c1` was tested, and the “hERG current change (%, negative = inhibition) at 10uM” value was 8.09%.
For `Cc1ccc(S(=O)(=O)CCC(=O)OCC(=O)NCCc2ccc(F)cc2)cc1`, the “hERG current change (%, negative = inhibition) at 10uM” value was -0.226%.
In the case of `CC(C)C[C@H]1CN=C(Nc2ccccc2)N1CC1CCC(C)CC1` (stereo partly shown), the “hERG current change (%, negative = inhibition) at 10uM” value is reported as -50.3%.
With `O=C(c1cc(-c2ccc(Br)cc2)on1)N1CCCC1` the “hERG current change (%, negative = inhibition) at 10uM” value was 10.3%.
In the case of `COc1ccc(CNC(=O)CSc2n[nH]c(C)c2[N+](=O)[O-])cc1`, the “hERG current change (%, negative = inhibition) at 10uM” value is reported as -10.9%.
`COC(=O)c1ccc(C(=O)OC)c(NC(=O)COC(=O)c2ccccc2OC)c1` was tested, and the “hERG current change (%, negative = inhibition) at 10uM” value was 5.87%.
For `O=C(NCc1ccc2c(c1)OCO2)C1Cc2ccccc2CN1C(=O)c1ccco1` (stereo not shown), the “hERG current change (%, negative = inhibition) at 10uM” value was -59%.
For `CCOC(=O)c1c(NC(=O)CS(=O)(=O)c2cn(CC)c3ccccc23)sc2c1CCCC2`, the “hERG current change (%, negative = inhibition) at 10uM” value was 6.26%.
With `CN(CC(=O)Nc1ccc(F)cc1)C(=O)c1cn(-c2ccccc2)nc1-c1cccs1` the “hERG current change (%, negative = inhibition) at 10uM” value was -17.8%.
In the case of `CC1CCc2c(sc3ncn4c(SCC(=O)NCc5ccco5)nnc4c23)C1` (stereo not shown), the “hERG current change (%, negative = inhibition) at 10uM” value is reported as 3.8%.
For `Cc1c(C(=O)NC2CCCc3ccccc32)oc2ccc(S(=O)(=O)N3CCOCC3)cc12` (stereo not shown), the “hERG current change (%, negative = inhibition) at 10uM” value was -2.45%.
In the case of `CN1CC(=O)Nc2ccc(F)cc2C1=O`, the “hERG current change (%, negative = inhibition) at 10uM” value is reported as 13.3%.
`C#CCN[C@H](C)Cc1ccccc1.Cl` was tested, and the “hERG current change (%, negative = inhibition) at 10uM” value was 1.08%.
For `COCCn1c(-c2ccccc2)nc(=S)c2c1CC(C)(C)OC2`, the “hERG current change (%, negative = inhibition) at 10uM” value was -11.5%.
With `OCCNc1nc(Nc2ccccc2O)nc(N2CCCC2)n1` the “hERG current change (%, negative = inhibition) at 10uM” value was -20.7%.
With `Clc1ccc(OCc2noc(-c3ccsc3)n2)c(Cl)c1` the “hERG current change (%, negative = inhibition) at 10uM” value was 12.9%.
`N#CC1=C(SCC(=O)Nc2ccccc2)NC(=O)CC1c1ccc(O)cc1` (stereo not shown) was tested, and the “hERG current change (%, negative = inhibition) at 10uM” value was 0.978%.
With `COCc1cc(C)[nH]c(=O)c1C#N` the “hERG current change (%, negative = inhibition) at 10uM” value was 15.2%.
With `Cn1c(=O)c2c(ncn2CC(=O)Nc2ccccc2N2CCOCC2)n(C)c1=O` the “hERG current change (%, negative = inhibition) at 10uM” value was -3.4%.
For `O=C(COC(=O)c1ccc[nH]c1=O)NCCCc1ccccc1`, the “hERG current change (%, negative = inhibition) at 10uM” value was 17.5%.
`CC1CCCCC1NC(=O)COC(=O)c1ccc(N(C)C)cc1` (stereo not shown) was tested, and the “hERG current change (%, negative = inhibition) at 10uM” value was 5.75%.
With `COc1ccc(C2=NNC(c3cc(Cl)cc4c3OCOC4)C2)c(O)c1` (stereo not shown) the “hERG current change (%, negative = inhibition) at 10uM” value was 7.19%.
`Cc1cc(NC(=O)CCC(=O)N(CC(=O)NC2CCCC2)Cc2ccco2)no1` was tested, and the “hERG current change (%, negative = inhibition) at 10uM” value was -0.447%.
In the case of `CCCc1ccc(OCC(O)CN2CCN(c3ccccn3)CC2)cc1.Cl` (stereo not shown), the “hERG current change (%, negative = inhibition) at 10uM” value is reported as -63.6%.
`CC(=O)c1ccc(-c2nc3ccccc3n2C)o1` was tested, and the “hERG current change (%, negative = inhibition) at 10uM” value was 12.7%.
In the case of `COc1ccc(NC(=O)CSc2nnc(COc3ccccc3)n2Cc2ccco2)cc1OC`, the “hERG current change (%, negative = inhibition) at 10uM” value is reported as -32.4%.
With `COc1cc(NC(=O)c2cc(-c3cccs3)on2)cc(OC)c1OC` the “hERG current change (%, negative = inhibition) at 10uM” value was -49.6%.
For `COc1ccc(CCNC(=O)CSCc2ccc([N+](=O)[O-])cc2)cc1OC`, the “hERG current change (%, negative = inhibition) at 10uM” value was -37.5%.
`Brc1ccccc1OCCCN1CCOCC1` was tested, and the “hERG current change (%, negative = inhibition) at 10uM” value was 10.8%.
In the case of `O=[N+]([O-])c1cc(C(F)(F)F)cc([N+](=O)[O-])c1Sc1n[nH]c(C(F)(F)F)n1`, the “hERG current change (%, negative = inhibition) at 10uM” value is reported as 8.69%.
With `CC(=O)c1c(C)n(CCc2ccc(Cl)cc2)c2ccc(O)cc12` the “hERG current change (%, negative = inhibition) at 10uM” value was 20.8%.
`O=C(COC(=O)C1COc2ccccc2O1)Nc1ccc(Cl)cc1` (stereo not shown) was tested, and the “hERG current change (%, negative = inhibition) at 10uM” value was 6.38%.
